Experimental data: the supplement of paper PMC11369174, “Proteome-scale characterisation of motif-based interactome rewiring by disease mutations” (Molecular Systems Biology, 2024)
The list shows a part of the results. The data scatter; read single values as rough.

Key:
Assay in all cases: mutation enrichment score (mutant vs wild-type peptide binding to bait); baits are purified protein domains named by gene / domain / UniProt id / residues; peptides come from disordered regions of human proteins; higher = mutation enhances binding relative to wild type
OXSR1___O95747_434_527 = conditions: wild-type window: …
[1] = biological target: NEDD4_WW_2_P46934_765_803; conditions: wild-type window: …
[2] = biological target: SMURF2_WW_3_Q9HAU4_298_330; conditions: wild-type window: …
WWTR1_WW__Q9GZV5_122_160 = conditions: wild-type window: …
NCK1_SH3_1_P16333_5_60 = conditions: wild-type window: …
Src_SH3__P12931_87_144 = conditions: wild-type window: …
[3] = biological target: PDCD6IP_Alix-V-domain__Q8WUM4_360_702; conditions: number of wild-type / mutant comparisons summed (bounds the score): 5; paper call: no_effect; wild-type window: …
[4] = biological target: USP7_MATH-TRAF__Q93009_53_206; conditions: number of wild-type / mutant comparisons summed (bounds the score): 5; paper call: no_effect; wild-type window: …
[5] = biological target: T1, ZMYND11_coiled-coil-MYND__Q15326_480_602; conditions: number of wild-type / mutant comparisons summed (bounds the score): 6; paper call: no_effect; wild-type window: …
T1 chain: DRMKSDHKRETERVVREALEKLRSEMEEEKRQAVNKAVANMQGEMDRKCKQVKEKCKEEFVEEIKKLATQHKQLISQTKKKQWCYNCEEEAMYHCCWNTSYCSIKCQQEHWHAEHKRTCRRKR

[6] = number of wild-type / mutant comparisons summed (bounds the score): 6, paper call: no_effect
[7] = number of wild-type / mutant comparisons summed (bounds the score): 24, paper call: diminished
[8] = number of wild-type / mutant comparisons summed (bounds the score): 12, paper call: no_effect
[9] = number of wild-type / mutant comparisons summed (bounds the score): 6, paper call: diminished
[10] = number of wild-type / mutant comparisons summed (bounds the score): 12, paper call: diminished
[11] = number of wild-type / mutant comparisons summed (bounds the score): 18, paper call: diminished
[12] = number of wild-type / mutant comparisons summed (bounds the score): 12, paper call: enhanced

Chain of WWTR1_WW__Q9GZV5_122_160 (chain, as listed by the source): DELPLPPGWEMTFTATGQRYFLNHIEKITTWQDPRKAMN
Chain of NEDD4_WW_2_P46934_765_803 (chain, as listed by the source): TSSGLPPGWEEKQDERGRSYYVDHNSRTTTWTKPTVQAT
Chain of USP7_MATH-TRAF__Q93009_53_206 (chain, as listed by the source): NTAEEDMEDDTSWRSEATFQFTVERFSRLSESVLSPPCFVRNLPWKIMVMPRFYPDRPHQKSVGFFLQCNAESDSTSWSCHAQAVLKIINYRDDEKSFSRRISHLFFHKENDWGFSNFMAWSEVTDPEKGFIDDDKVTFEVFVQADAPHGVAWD

Binder: QGTGRPGQPPGPKVLRKLPGWLVTVVEEKELVRRRRQQRGA [R2753W R2753W]
- mutation enrichment score (OXSR1___O95747_434_527; [6]): 2

Binder: RSPNTGPYPSEQALPIPGTPSPNYDSLRLQPLDVIESDSEG [P617S P617S]
- mutation enrichment score [1, 7]: -16
- mutation enrichment score [2, 8]: -2
- mutation enrichment score (WWTR1_WW__Q9GZV5_122_160; [9]): -6

Binder: NTGPYPSEQALPIPGTPPPNHDSLRLQPLDVIESDSEGDAI [Y620H Y620H]
- mutation enrichment score [1, 7]: -16
- mutation enrichment score [2, 8]: -2
- mutation enrichment score (WWTR1_WW__Q9GZV5_122_160; [9]): -6

Binder: SAPPLSHTPSSDFQPPYFPPRYQPLPYHQSQDPYSHVNDPY [P73R P73R]
- mutation enrichment score [1, 10]: -12
- mutation enrichment score [2, 10]: -9
- mutation enrichment score (WWTR1_WW__Q9GZV5_122_160; [10]): -7

Binder: REDFRSVLRRAPEPRPEFHVREPGKLQFEVQKVDRPVDTTE [H1952R H1952R]
- mutation enrichment score (OXSR1___O95747_434_527; [6]): 2.3

Binder: PTKIREYTLTHLPQGAEYRFHVLACNAGGPGEPAEVPGTVK [R31033H R31033H]
- mutation enrichment score (OXSR1___O95747_434_527; [6]): 3

Binder: SGFLNNSWPLPQPPSPMPYACCQMAAAAAAAAAAAAAAGPG [S217C S217C]
- mutation enrichment score (NCK1_SH3_1_P16333_5_60; [6]): 0
- mutation enrichment score (Src_SH3__P12931_87_144; [6]): 0

Binder: SRIQNPVAFLSSVLPSLPAITPTNAMGLPRSAPSMPSQGLA [P841T P841T]
- mutation enrichment score (NCK1_SH3_1_P16333_5_60; [8]): -1
- mutation enrichment score (Src_SH3__P12931_87_144; [8]): -2.9

Binder: LQIRETSLDTKSVSEGHLKRIIVVKTVEMRDGEVIKESKQE [N407I N407I]
- mutation enrichment score (OXSR1___O95747_434_527; [6]): -2

Binder: SDSDTDSSQEENEVTEHTPLPRPLASVSAQSFGALSESRSH [L312P L312P]
- mutation enrichment score [1, 6]: -2

Binder: PEVTWSCGGRKIHSQEQGRFPIENTDDLTTLIIMDVQKQDG [H34305P H34305P]
- mutation enrichment score (OXSR1___O95747_434_527; [10]): -11

Binder: DSDSDTDSSQEENEVTEHTPSLRPLASVSAQSFGALSESRS [L311S L311S]
- mutation enrichment score [1, 6]: -2

Binder: MAAASYDQLLKQVEALKMENLNLRQ [S5L S5L]
- mutation enrichment score [3]: 3

Binder: GGLLNNPLSAATGNTTTASSPGEPEDSTSKGEEKGNENEDE [Q2833P Q2833P]
- mutation enrichment score [1, 6]: -4

Binder: VNSYYPTPPAPMPGPTTGLVMGPDGKGMNPPSYYTQPAPIP [T49M T49M]
- mutation enrichment score [1, 6]: 0.66
- mutation enrichment score (WWTR1_WW__Q9GZV5_122_160; [6]): 0.46

Binder: VVGFKNLALMDSSSSLSRNPSSYIAPYSCILRYAVSAALWL [P721S P721S]
- mutation enrichment score [1, 9]: -6

Binder: TKKQPTGASLVLQVSYTPLPEAVPLFPPPTPLEPSPTLPDL [G128E G128E]
- mutation enrichment score (OXSR1___O95747_434_527; [6]): -1

Binder: YMHKDAKKGFIRLDMSEFQEGHEVAKFIGSPPGYVGHEEGG [R417G R417G]
- mutation enrichment score ([1]; number of wild-type / mutant comparisons summed (bounds the score): 6, paper call: enhanced): 6
- mutation enrichment score (WWTR1_WW__Q9GZV5_122_160; [6]): 3

Binder: TKSVSEGHLKRNIVVKTVEMGDGEVIKESKQEHKDVM [R416G R416G]
- mutation enrichment score (OXSR1___O95747_434_527; [6]): -2

Binder: TKSVSEGHLKRNIVVKTVEMWDGEVIKESKQEHKDVM [R416W R416W]
- mutation enrichment score (OXSR1___O95747_434_527; [6]): -1.8

Binder: EGPTGLKEAALYPHLPPEADLRLIESLSQMLSMGFSDEGGW [P392L P392L]
- mutation enrichment score [3]: 5

Binder: QVLTVLFFLEVVGFKNLALMASSSSLSRNPPSYIAPYSCIL [D711A D711A]
- mutation enrichment score [1, 6]: -2.8
- mutation enrichment score [4]: 2.6

Binder: KSVSEGHLKRNIVVKTVEMRAGEVIKESKQEHKDVM [D417A D417A]
- mutation enrichment score (OXSR1___O95747_434_527; [6]): -1.9

Binder: SAQSAESSSVAMTPTYMDSPGKDGAFFMEFVRSPRTASSAF [R1087G R1087G]
- mutation enrichment score (OXSR1___O95747_434_527; [8]): 2
- mutation enrichment score [4]: 4

Binder: PRSPNTGPYPSEQALPIPGTRPPNYDSLRLQPLDVIESDSE [P616R P616R]
- mutation enrichment score [1, 11]: -12
- mutation enrichment score [2, 6]: -1
- mutation enrichment score (WWTR1_WW__Q9GZV5_122_160; [9]): -6

Binder: PRSPNTGPYPSEQALPIPGTLPPNYDSLRLQPLDVIESDSE [P616L P616L]
- mutation enrichment score ([1]; number of wild-type / mutant comparisons summed (bounds the score): 18, paper call: no_effect): -5.3
- mutation enrichment score [2, 8]: 5
- mutation enrichment score (WWTR1_WW__Q9GZV5_122_160; [8]): -5

Binder: PRSPNTGPYPSEQALPIPGTSPPNYDSLRLQPLDVIESDSE [P616S P616S]
- mutation enrichment score [1, 11]: -12
- mutation enrichment score [2, 6]: 2.2
- mutation enrichment score (WWTR1_WW__Q9GZV5_122_160; [6]): -5.8

Binder: HGKEDIKVIPNPPPDHWALVRGLPAYVAQNGLICNIMNAPA [S344R S344R]
- mutation enrichment score [1, 8]: -4
- mutation enrichment score [2, 10]: -12
- mutation enrichment score (WWTR1_WW__Q9GZV5_122_160; [10]): -7.9

Binder: QQHTGPAGTMVPPSYSSQPYHSTHPSTNPTLVDPTRHLQQR [Q1974H Q1974H]
- mutation enrichment score [1, 6]: 0.25
- mutation enrichment score [2, 6]: 0.12

Binder: EVTWSCGGRKIHSQEQGRFHNENTDDLTTLIIMDVQKQDGG [I34306N I34306N]
- mutation enrichment score (OXSR1___O95747_434_527; [10]): -11

Binder: EVTWSCGGRKIHSQEQGRFHSENTDDLTTLIIMDVQKQDGG [I34306S I34306S]
- mutation enrichment score (OXSR1___O95747_434_527; [10]): -11

Binder: EVTWSCGGRKIHSQEQGRFHTENTDDLTTLIIMDVQKQDGG [I34306T I34306T]
- mutation enrichment score (OXSR1___O95747_434_527; [10]): -11

Binder: FSSASAPDQSAPPSLGHAHSKGPAPAYVASGPFREAGFPGQ [E113K E113K]
- mutation enrichment score [1, 8]: -1.4
- mutation enrichment score [2, 10]: -9.9
- mutation enrichment score (WWTR1_WW__Q9GZV5_122_160; [8]): 0.53
- mutation enrichment score [5]: -3

Binder: FYIGWGHKYSPDNYTPPVPPSVYQEYPSGPEITEMDDPSVE [P664S P664S]
- mutation enrichment score [1, 10]: -8
- mutation enrichment score [2, 8]: -3
- mutation enrichment score (WWTR1_WW__Q9GZV5_122_160; [10]): -7

Binder: LQSGFLNNSWPLPQPPSPMPCASCQMAAAAAAAAAAAAAAG [Y215C Y215C]
- mutation enrichment score (NCK1_SH3_1_P16333_5_60; [12]): 6.4
- mutation enrichment score (Src_SH3__P12931_87_144; [12]): 7

Binder: SSAVSASGSTSSQGDQSNPAKSPFSPHASPHLSSIPGGPSP [Q704K Q704K]
- mutation enrichment score [1, 6]: -4

Binder: TSVVDSEPVRFTVKVTGEPKTEITWWFEGEILQDGEDYQYI [P611T P611T]
- mutation enrichment score (OXSR1___O95747_434_527; [6]): -3.6

Binder: TKQKEFFDVWPVLMGEVPPYCGPRTPDGREINFYKVIDYIL [S303C S303C]
- mutation enrichment score [1, 6]: -3
- mutation enrichment score [2, 6]: -5
- mutation enrichment score (WWTR1_WW__Q9GZV5_122_160; [6]): -1

Binder: SPNTGPYPSEQALPIPGTPPRNYDSLRLQPLDVIESDSEGD [P618R P618R]
- mutation enrichment score [1, 7]: -16
- mutation enrichment score [2, 8]: -2
- mutation enrichment score (WWTR1_WW__Q9GZV5_122_160; [9]): -6
